Sequences and labels used below:
B1: PDK1_HUMAN_136 (peptide)
chain: AEDAKAIYDFTDTVI
B2: PARK2_HUMAN_143_YA (peptide)
chain: SPAGRSIYNSFAVAC
B3: PB1_HUMAN_1289 (peptide)
chain: KVVDDEIYYFRKPIV
B4: PDK2_HUMAN_215_YA (peptide)
chain: AKLLCDKYAMASPDL
B5: PEAK1_HUMAN_641 (peptide)
chain: AYDNLAIYKSFLGTS
B6: P85A_HUMAN_467_YA (peptide)
chain: SREADRLYEEATRTS
B7: PDK1_HUMAN_243 (peptide)
chain: ARRLCDLYYINSPEL
B8: P73_HUMAN_28 (peptide)
chain: SLEPDSTYFDLPQSS
B9: PARP1_HUMAN_907 (peptide)
chain: MVSKSANYCHTSQGD
B10: P85B_HUMAN_605 (peptide)
chain: KNETEDQYALMEDED
B11: P73_HUMAN_99 (peptide)
chain: SVPTHSPYAQPSSTF
B12: PDK1_HUMAN_243_YA (peptide)
chain: ARRLCDLYAINSPEL
B13: PDK3_HUMAN_211_YA (peptide)
chain: AKMLCEQYALVAPEL
B14: PAXI_HUMAN_31_YA (peptide)
chain: FLSEETPYSAPTGNH
B15: APT_HUMAN_60 (peptide)
chain: THGGRIDYIAGLDSR
B16: PEAK1_HUMAN_635_YA (peptide)
chain: IVINPNAYDNLAIAK
B17: PEAK1_HUMAN_641_YA (peptide)
chain: AADNLAIYKSFLGTS
B18: ODPB_HUMAN_67_YA (peptide)
chain: VAQADGAYKVSRGLW

This is one part of the list. No stated cut-off is given here; in the data, active = 3.2 or more and inactive = the rest. The signal is at background level for most entries.
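Further: displayed peptides selected on beads carrying the immobilized SH2 domain, with library peptides lacking any tyrosine serving as negative controls.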

One test concerns the target SHP2 C-SH2 domain E139D. In words: enrichment score (SH2-bound / input frequency) (ratio); bacterial display of known human phosphotyrosine sites (pTyr-Var adds point mutants) read by sequencing; higher = stronger binding; tyrosines were phosphorylated by kinases first. The following applies: peptide library: Human pTyr.
Regarding B1, the enrichment score was inactive: 0.753.

For B2, the enrichment score was inactive: 1.42.

Turning to B3, the enrichment score is inactive: 0.991.

On to B4, for which the enrichment score is inactive: 0.917.

For the molecule B5, the enrichment score was inactive: 0.469.

For B6, the enrichment score is inactive: 0.795.

As to B7, the enrichment score was inactive: 2.1.

In the case of B8, the enrichment score was inactive: 0.791.

In the case of B9, the enrichment score was inactive: 0.748.

Consider B10, for which the enrichment score is inactive: 1.1.

Turning to B11, the enrichment score is inactive: 0.623.

On to B12, for which the enrichment score is inactive: 1.3.

Consider B13, for which the enrichment score was inactive: 1.13.

On to B14, for which the enrichment score is inactive: 0.616.

Regarding B15, the enrichment score was inactive: 0.679.

For B16, the enrichment score was inactive: 0.935.

For the molecule B17, the enrichment score is inactive: 0.699.

As for B18, the enrichment score was inactive: 0.872.

The target in the next test is SHP2 C-SH2 domain wild-type. Described as above. Particulars: peptide library: Human pTyr.
B1: the enrichment score is inactive: 0.836.

In the case of B2, the enrichment score is inactive: 1.08.

Regarding B3, the enrichment score was inactive: 1.06.

Turning to B4, the enrichment score is inactive: 0.927.

For the molecule B5, the enrichment score is inactive: 0.5.

For the molecule B6, the enrichment score was inactive: 0.616.

For B7, the enrichment score was inactive: 1.62.

In the case of B8, the enrichment score is inactive: 0.685.

Turning to B9, the enrichment score is inactive: 0.702.

For B10, the enrichment score is inactive: 1.2.

As for B11, the enrichment score was inactive: 0.518.

For B12, the enrichment score was inactive: 1.06.

Consider B13, for which the enrichment score is inactive: 1.28.

Regarding B14, the enrichment score is inactive: 0.451.

Consider B15, for which the enrichment score is inactive: 0.694.

On to B16, for which the enrichment score is inactive: 1.18.

As to B17, the enrichment score is inactive: 0.657.

For B18, the enrichment score is inactive: 0.744.

The next test has as its target SHP2 N-SH2 domain L43F. The test is described as above. The following applies: peptide library: Human pTyr.
Regarding B1, the enrichment score is inactive: 0.578.

On to B2, for which the enrichment score was inactive: 1.09.

B3: the enrichment score is inactive: 1.15.

Turning to B4, the enrichment score is inactive: 0.895.

As for B5, the enrichment score was inactive: 0.63.

In the case of B6, the enrichment score is inactive: 0.634.

With B7, the enrichment score is inactive: 1.5.

Take B8: the enrichment score is inactive: 0.653.

In the case of B9, the enrichment score was inactive: 0.734.

With B10, the enrichment score was inactive: 1.08.

Turning to B11, the enrichment score is inactive: 0.607.

Consider B12, for which the enrichment score is inactive: 0.985.

On to B13, for which the enrichment score is inactive: 1.28.

As to B14, the enrichment score was inactive: 0.458.

As for B15, the enrichment score was inactive: 0.761.

Consider B16, for which the enrichment score is inactive: 0.664.

As to B17, the enrichment score was inactive: 0.664.

B18: the enrichment score was inactive: 0.836.

A further test addresses SHP2 N-SH2 domain T42A. The test is described as above. Particulars: peptide library: Human pTyr.
For the molecule B1, the enrichment score was inactive: 0.657.

For the molecule B2, the enrichment score was inactive: 1.1.

Consider B3, for which the enrichment score was inactive: 0.979.

B4: the enrichment score is inactive: 0.931.

B5: the enrichment score is inactive: 0.531.

Take B6: the enrichment score is inactive: 0.64.

Regarding B7, the enrichment score is inactive: 1.3.

Regarding B8, the enrichment score was inactive: 0.633.

With B9, the enrichment score was inactive: 0.786.

Turning to B10, the enrichment score was inactive: 1.19.

With B11, the enrichment score is inactive: 0.583.

As for B12, the enrichment score was inactive: 1.11.

For B13, the enrichment score was inactive: 1.33.

As to B14, the enrichment score was inactive: 1.26.

For B15, the enrichment score is inactive: 0.61.

Take B16: the enrichment score was inactive: 0.484.

In the case of B17, the enrichment score was inactive: 0.635.

Regarding B18, the enrichment score is inactive: 0.822.

For another test, the target named is SHP2 N-SH2 domain T52S. The test is described as above. Particulars: peptide library: Human pTyr.
For the molecule B1, the enrichment score was inactive: 0.935.

Take B2: the enrichment score is inactive: 1.3.

In the case of B3, the enrichment score is inactive: 0.798.

With B4, the enrichment score is inactive: 1.02.

With B5, the enrichment score was inactive: 0.604.

In the case of B6, the enrichment score was inactive: 0.637.

For B7, the enrichment score is inactive: 1.55.

Turning to B8, the enrichment score is inactive: 0.719.

In the case of B9, the enrichment score is inactive: 0.691.

As for B10, the enrichment score was inactive: 1.37.

B11: the enrichment score was inactive: 0.494.

For B12, the enrichment score was inactive: 1.06.

Take B13: the enrichment score was inactive: 1.41.

Consider B14, for which the enrichment score was inactive: 0.595.

For B15, the enrichment score is inactive: 0.743.

In the case of B16, the enrichment score was inactive: 0.536.

Take B17: the enrichment score is inactive: 0.658.

Take B18: the enrichment score was inactive: 0.855.

In the next test the target is SHP2 N-SH2 domain wild-type. The test is described as above. The following applies: peptide library: Human pTyr.
Take B1: the enrichment score was inactive: 0.912.

For B2, the enrichment score was inactive: 1.28.

Consider B3, for which the enrichment score was inactive: 1.38.

Consider B4, for which the enrichment score was inactive: 0.972.

On to B5, for which the enrichment score is inactive: 0.705.

B6: the enrichment score was inactive: 0.589.

For B7, the enrichment score is inactive: 2.21.

For B8, the enrichment score was inactive: 0.596.

Consider B9, for which the enrichment score was inactive: 0.821.

In the case of B10, the enrichment score was inactive: 1.22.

With B11, the enrichment score was inactive: 0.614.

As for B12, the enrichment score was inactive: 1.11.

For B13, the enrichment score was inactive: 1.36.

On to B14, for which the enrichment score was inactive: 0.548.

For the molecule B15, the enrichment score is inactive: 0.626.

Take B16: the enrichment score is inactive: 0.701.

Turning to B17, the enrichment score is inactive: 0.803.

B18: the enrichment score was inactive: 0.857.

The values above are taken from the supplement of paper PMC10369915.
